Results published in patent publication US9566281B2 (Westfaelische Wilhelms-Universitaet, priority 2012, dated 2017).

Key:
[1] = test system: A/Regensburg/D6/09, H1N1pdm09, RB1; details: mouse, in vivo

Row | Structure (SMILES) | antiviral potency (H1N1pdm09 (RB1)) | reducing virus titer in the lung [1]
1 | Cc1cc(C(=O)NOCCO)c(Nc2ccc(I)cc2F)n(C)c1=O [AZD-8330] | very potent | 
2 | O=C(NOCC1CC1)c1ccc(F)c(F)c1Nc1ccc(I)cc1Cl [CI-1040] |  | potent
3 | O=C(NOC[C@H](O)CO)c1ccc(F)c(F)c1Nc1ccc(I)cc1F [PD-0325901] |  | potent
4 | CCCS(=O)(=O)Nc1ccc(F)c(C(=O)c2c[nH]c3ncc(-c4ccc(Cl)cc4)cc23)c1F [PLX-4032] | potent | 
